Measured values reported in the supplement of paper PMC11417369.
± gives the standard deviation of the averaged measurements. This is one part of the list.

test system: PfAP2-G AP2 domain (GST-tagged); assay: gcPBM binding intensity (ln(normalized median fluorescence intensity)); higher = stronger DNA binding
Procedure, shortened: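 Plasmodium falciparum DNA-binding domains carrying a GST tag were expressed in E. coli and applied for 1 h, at about 25 μg on average, to an Agilent 4 × 180k array. The array held primer-extended double-stranded 36-bp intergenic genomic probes together with negative controls, and binding took place in 1× PBS with 1% milk, 0.2 mg/ml BSA, 0.5% salmon testes DNA and 0.03% Triton X-100. An Alexa488 anti-GST antibody detected bound protein, and the array was scanned at 488 nm. Binding intensity is taken as the highest Masliner-normalised natural-log median intensity across replicate spots of either probe orientation.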

| Sequence | gcPBM binding intensity (ln) |
| --- | --- |
| TATCATGTCTGTATTTCACACACGGATAATCATTTA [CACACA_site920] | 10.1 ± 0.14 |
| AGAAAATTAAAAAGAACACACAAATATATATAGAAT [CACACA_site3592] | 10.08 ± 0.071 |
| ATTTATATGCACCATTGTACGTTTTATAAAGTTTGG [XGTACX_site3755] | 11.4 ± 0.8 |
| ATACATATATACATACGTACTTATATACATATGTGC [XGTACX_site5268] | 10.9 ± 0.42 |
| TATTCTATATTTCTATTTAGAAAACATCCCAGTGTG [GTGCAC_negctrl_site184] | 9.9 ± 0.014 |
| ATGTATATAATAAGAACACACATATATTTAATTTAA [CACACA_site2941] | 9.91 ± 0.12 |
| AAAAATAAAATATATACATGCATATACATATTATAT [TGCATGCA_site668] | 9.69 ± 0.25 |
| TGTTATATTTAATATAGTACATATTATTTTATATAT [XGTACX_site70] | 10.9 ± 0.73 |
| TAATTAAATAAAAAAACACACACATATATACATATA [CACACA_site9141] | 9.92 ± 0.042 |
| TCTATTAATTAATATACACACATTAGATATAAATAT [CACACA_site7241] | 9.945 ± 0.092 |
| ACACATATATAAATATGTACATATATATATATACAT [XGTACX_site1595] | 11.2 ± 0.76 |
| ATGTGTATATATTATTGTACATATATATATATATAT [XGTACX_site4627] | 11.2 ± 0.82 |
| AAAAAACAAAAAATTACACACATATATAAATATATT [CACACA_site2317] | 9.615 ± 0.021 |
| TAATAAAGGTGTAATACACACTATAAAAAGGAATAT [CACACA_site4756] | 10.09 ± 0.014 |
| TACACCCATAGACACACACACACGCATAAAAAAAAA [CACACA_site8428] | 10.4 ± 0.4 |
| AAAAAAAAAAAAAAAAGTACTAATTGAATATTAAAC [XGTACX_site3383] | 11.5 ± 0.93 |
| ACATATATATAAATATATATATATATATATATATAT [CACACA_negctrl_site874] | 9.76 ± 0.47 |
| ATGGTAAGTATTTTATGTACATATATATTTATATAA [XGTACX_site4003] | 11.3 ± 0.79 |
| TTTTTTAACCTTTTATGTACACAATATTTAACATTT [XGTACX_site1170] | 11.6 ± 0.95 |
| ACTTACACAGTTGATGGTACACTTTTATGATTTTGT [XGTACX_site3205] | 11 ± 0.53 |
| TATATATAAAGGTGTACACATATATATATATCTGTA [CACACA_site5311] | 11.7 ± 0.98 |
| ATTTCATATTATGTAACACACAACAAGATAATCAAA [CACACA_site1960] | 10.1 ± 0.26 |
| TTTTATTTACACAGTGGTACTATTAAAAATTAATGA [XGTACX_site6737] | 11 ± 0.7 |

| Sequence | gcPBM binding intensity (ln) |
| --- | --- |
| ATAAGGTTACAACAAACACACAAAGGAATATACTCA [CACACA_site6108] | 10.2 ± 0.13 |
| ACAAGTTAAAATATTACACACATATAAATATATATA [CACACA_site3132] | 9.84 ± 0.099 |
| AATATTTGTTAAAGAGGTACACCATTTGGTAGGGAA [XGTACX_site2165] | 11.4 ± 0.79 |
| ATAATATGAAAACACACACACACACTAGAAAAAAAA [CACACA_site5153] | 10.2 ± 0.35 |
| AAAAAAAAAAATATAACACACAACAAAAAAATATAT [CACACA_site1753] | 9.85 ± 0.099 |
| ATTATTTAAATGGATGCACACATGCATTAAATAAAA [CACACA_site5831] | 9.915 ± 0.078 |
| TATTTTAACATTAGGTGTACATACAAAAATAAAAAT [XGTACX_site8577] | 11.6 ± 0.93 |
| AAATTAATATTATGTGCATGCACAAAGAGGAACGAC [TGCATGCA_site754] | 10.6 ± 0.51 |
| TGGTAATTTCTTTGATAAAAATTAATATGTATAAAT [XGTACX_negctrl_site152] | 9.815 ± 0.064 |
| TTTTTCAAATTTAATACACACACAAGTATATATTTA [CACACA_site9307] | 9.84 ± 0.085 |
| TTTTTCTTTTTACATACACACAAAAAAATAAAATAT [CACACA_site581] | 10.3 ± 0.33 |
| AATTGGAAGAAAAAAAAGGAAGGAAAGTTATTACAT [GTGCAC_negctrl_site74] | 9.61 ± 0.16 |
| TATATACATGCATATACACACATATATTTATTTATA [CACACA_site6327] | 9.93 ± 0.12 |
| TTTGTAAAACTATATTGTACTTTTATATATCTACAA [XGTACX_site5507] | 11.3 ± 0.88 |
| ACAACTCGGAAGGTTTGTACTTAAAGTATAATTAAG [XGTACX_site737] | 11.2 ± 0.54 |
| TCATACATGGTGTGTTTGCACTTGACCTATATTCAT | 10.18 ± 0.042 |
| TCTTGAATAACAAAAAAATGTGCCAACAAAATAAAT [XGTACX_negctrl_site172] | 10.5 ± 0.33 |
| ATAAAAAAATTAAATACATGCACATATACACATACA [TGCATGCA_site129] | 10.3 ± 0.19 |
| GTATATATGTATGTATGTACGTATATAGTTATGTAT [XGTACX_site6769] | 11.6 ± 0.93 |
| TACTGAAATAATTATTTAAACGTTTTTATATGTATT [CACACA_negctrl_site487] | 9.83 ± 0.042 |
| TTTATTTTTTCCAAGTCACACATGTTTTGATATATT [CACACA_site4946] | 10.06 ± 0.028 |
| AGGATACACAGACACACACACATATATATATATATA [CACACA_site907] | 10.1 ± 0.25 |
| TTTTTTTAAAGACATGCATGTAATATTTAAATCATT [TGCATGCA_site495] | 9.79 ± 0.028 |

| Sequence | gcPBM binding intensity (ln) |
| --- | --- |
| ATTAAAAATATAGTCACACATACACCCATATATATT [CACACA_site5394] | 10.15 ± 0.099 |
| TAAATAGATGTTTTATGTACGTATAAATAAAAAAAA [XGTACX_site3412] | 11.7 ± 0.88 |
| ATAATTTTTTGATTTGCATGTAATAAATATATGATA [TGCATGCA_site384] | 9.88 ± 0.23 |
| AATATATTTTTTCACTGTACTTTTATTATATATACA [XGTACX_site8312] | 11.5 ± 0.92 |
| AAAAAAAATGGATGATCACACACTTCATAAAAATTG [CACACA_site2213] | 10.04 ± 0.092 |
| CACATACAGATATATACACACAAATATATATACTCA [CACACA_site4591] | 10.1 ± 0.17 |
| GATTTTTTTTTGTGGACACACAGAAATAAATTTATA [CACACA_site327] | 11.4 ± 1 |
| ATACAACGATATATATATATACAAATACATATTTAT [CACACA_negctrl_site268] | 9.85 ± 0.085 |
| ATATAGGTATTTAATACACACAAAACTTTCATTCCA [CACACA_site7627] | 10.1 ± 0.15 |
| CATGTGCATATTAAATGTACATATATACATATATAC [XGTACX_site857] | 10.9 ± 0.58 |
| AAGGATGATACAACTTGTACATATTTGCTTAATATA [XGTACX_site764] | 11.1 ± 0.4 |
| ATATAAATATATTGCACACACAATTATTATTATTAT [CACACA_site7147] | 10 ± 0.23 |
| TATAATGTTAAATAATGTACATATTTTTTTTTTTTT [XGTACX_site4721] | 11.1 ± 0.62 |
| ATATAAATCTACACCGCACACAAAAACAACAAATAT [CACACA_site2506] | 10.3 ± 0.24 |
| AAATAAATGAAACACACACACACAAAAAAAAAAAAC [CACACA_site2625] | 10.2 ± 0.26 |
| AAAGCTAATATTATATGTACTTATATATTTATATAT [XGTACX_site4474] | 11.2 ± 0.79 |
| TATATATCAATATGCACACACAAGAAGTAATTATAA [CACACA_site7487] | 10.04 ± 0.035 |
| TAAAAAGTATATAAGAGTACACATATTTATAAATAT [XGTACX_site3084] | 11.6 ± 0.92 |
| AGACTTTGTACAAACACACACATGAGCACAATATTA [CACACA_site6755] | 11 ± 0.43 |
| ACACAATTGAAATAGTGTACAAAATGTTGTTACATA [XGTACX_site8671] | 11.1 ± 0.57 |
| TTATTAACCAAACGCACATGCAAAATATATTATATA [TGCATGCA_site915] | 10.1 ± 0.23 |
| AAATAAATAATATGTAAACACACAAAAAATAAAAAT [CACACA_site8307] | 10.1 ± 0.18 |
| TTTTTTTTTCGGAAAAGTACAAAACTTTTTTATAAT [XGTACX_site4670] | 11.3 ± 0.93 |

| Sequence | gcPBM binding intensity (ln) |
| --- | --- |
| AACAAATTTTTTTTTCCTTTTTTTTTTTTACTTCAT [CACACA_negctrl_site1214] | 9.58 ± 0.042 |
| ATAAACAAAGTTAAATGTACAAAGGGGTAAAAAAAA [XGTACX_site83] | 10.7 ± 0.43 |
| TTTTTTTTTTTCGGGGGTACTAATATATTATTAATA [XGTACX_site7809] | 11.5 ± 0.93 |
| GTTTTTAAGAAAAACACACACTCCTGTTATTTTATA [CACACA_site3696] | 9.94 ± 0.071 |
| TAATAATTAATTAATATAATATTTTTTCATAATTAT [XGTACX_negctrl_site602] | 9.85 ± 0.18 |
| ATAGAAAAAATATACACACACTTATTAAATAAAAAT [CACACA_site7540] | 9.99 ± 0.071 |
| AACAAAATTGAAGGAACACACATACAGATATATATA [CACACA_site4264] | 10.1 ± 0.2 |
| TGAATTAAGATTTATTGTACATAATTTATACCATAT [XGTACX_site7034] | 11.1 ± 0.6 |
| TAAATTTATAGACACACACACATATAAATAAATATA [CACACA_site6530] | 10.1 ± 0.25 |
| TATATAAATAAATATACACACATATATAAATATACA [CACACA_site2982] | 9.62 ± 0.11 |
| TTTTTTTTTTTTTGCACACTTAAATTTGGAGTGTAG [CACACA_site2345] | 10.1 ± 0.56 |
| TTTAATAATAATACTAGTACACATTCTTTATTATTT [XGTACX_site2671] | 11.3 ± 0.9 |
| ATATAATATATATATTGTACATATATTTATAAGCAT [XGTACX_site3726] | 10.9 ± 0.65 |
| AATGTGCTCGCTATTACACACTCATTGGGATAAACT [CACACA_site7043] | 10.3 ± 0.23 |
| TATATATATATATATTGTACATTTACCAAATTGTGT [XGTACX_site5791] | 10.9 ± 0.68 |
| TAATATATCAAATGAAGTACTCACATATACATAATA [XGTACX_site6051] | 11.4 ± 0.7 |
| GGTATATATTTATAATGTACATATTCATATATATAA [XGTACX_site3291] | 11 ± 0.57 |
| TTTTTTAAATTATGTAGTACGATTCATTTTTTATAA [XGTACX_site1101] | 11 ± 0.76 |
| AAAGTAAAAAATCATAGTACACATTTAAATATATAT [XGTACX_site2323] | 11.1 ± 0.71 |
| ATATATTACGACTTCTGTACATAATATATAAAAGAA [XGTACX_site2353] | 11 ± 0.72 |
